In PubChem BioAssay AID686971 (National Center for Advancing Translational Sciences (NCATS), 2013):
Among all 360,000 compounds or so, about 7,500 (2.1%) were called active. Inconclusive results, whose numbers are uncertain, are shown with a selection of clear calls. Calls come from the whole dose curve; as a rule, active = well fitted cell-killing curve with a large enough effect; inconclusive = small, poorly fitted or top-dose-only effect, or effect the other way, or another doubt; inactive = no such curve, though single readings can be large or run the other way. No potency is given beside an inconclusive call; the fits are too rough.

Experiment: qHTS for induction of synthetic lethality in tumor cells producing 2HG: qHTS for the HT-1080-IDH1KD cell line;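 for activity, negative = toxicity: 0% = DMSO wells and -100% = cell-free medium wells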
Details: HT-1080 IDH1 knockdown viability, ATP luminescence, 48 h; activity, negative = toxicity: at 46.1 µM (top of the series) unless noted
In short: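 % activity derives from luminescence (CellTiter-Glo), normalised to DMSO and no-cell wells. HT-1080-IDH1KD cells, 750/well, had 48 h compound exposure at 37 °C.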
Potency is the fitted concentration of half-maximal effect; tags give direction and shape of the fitted curve.

| SMILES | Potency | activity, negative = toxicity |
| --- | --- | --- |
| COc1cc(/C=N/Nc2ccc([N+](=O)[O-])cn2)cc(OC)c1O | inconclusive [cytotoxic, partial curve] |  |
| COC(=O)[C@]12CCCCC=C1N(Cc1cccc3ccccc13)C(=O)[C@H](CC(=O)NCc1cccs1)C2 | inconclusive [cytotoxic, single point] |  |
| O=C(CC1SC(=Nc2ccc3c(c2)OCCO3)NC1=O)Nc1ccc(F)cc1F (centres undefined) | inconclusive [cytotoxic, partial curve] |  |
| COc1ccc2cc(C3CC=C(CO)CN3S(=O)(=O)c3ccccc3[N+](=O)[O-])n(C(=O)OC(C)(C)C)c2c1 (centres undefined) | inconclusive [cytotoxic, single point] |  |
| CC(=NNC(=O)c1ccccc1N)c1ccccc1O | inconclusive [cytotoxic, full curve] |  |
| COCc1cc(C)nc2sc3c(=O)n(-c4cccc5ccccc45)nnc3c12 | inconclusive [cytotoxic, single point] |  |
| Nc1c(C(=O)c2ccccc2)oc2ccccc12 | inconclusive [cytotoxic, single point] |  |
| Cc1cc(C(=O)N/N=C(\CCC(=O)O)c2cccs2)c2ccccc2n1 | inconclusive [cytotoxic, partial curve] |  |
| CSc1ccc(CN(C)Cc2nc3cc(C(F)(F)F)ccc3c(=O)[nH]2)cc1 | inactive |  |
| O=C(N/N=C/c1ccc[nH]1)c1sc2ccccc2c1Cl | inconclusive [cytotoxic, single point] |  |
| COc1cc(Cl)ccc1NC(=S)N(CCCN1CCOCC1)Cc1cn(C)c2ccccc12 | inconclusive [cytotoxic, partial curve] |  |
| Nc1nc2c(Br)ccc(Br)c2cc1C(=O)NCc1cccc2ccccc12 | active: 16.4 µM |  |
| C#Cc1cccc(Nc2nc(NCCOC)nc3ccsc23)c1 |  | inconclusive: -30.5% [cytotoxic] |
| Cc1cccc(-n2ncc3c(NCc4cccs4)ncnc32)c1 | inconclusive [cytotoxic, single point] |  |
| N=c1c(S(=O)(=O)c2ccccc2)cc2c(=O)n3ccccc3nc2n1C1CCCCC1 | inconclusive [cytotoxic, single point] |  |
| COCCCN1C(=O)N(c2ccc(F)cc2)C(=O)C1CC(=O)Nc1ccc(OC)cc1 (centres undefined) | inactive |  |
| Cc1cccc(NS(=O)(=O)c2ccc(C)c(NS(=O)(=O)c3cccs3)c2)c1 | inconclusive [cytotoxic, partial curve] |  |
| CC1CCCCN1CCNC(=O)c1ccc2c(c1)N(Cc1ccccc1)C(=O)c1ccccc1S2(=O)=O (centres undefined) | inconclusive [cytotoxic, single point] |  |
| Cc1ccc(OCC(=O)N/N=C\c2cccs2)c([N+](=O)[O-])c1 | inactive |  |
| O=C(NNC(=O)c1ccc(Oc2cc(Cl)cc(Cl)c2)o1)c1ccccc1 |  | inconclusive: -31% [cytotoxic] |
| Cc1ccc(NC(=O)/C(=C/c2cccc(Br)c2)NC(=O)c2ccco2)cc1 |  | inconclusive: -34.8% [cytotoxic] |
| Cc1sc2nc(-c3ccccn3)[nH]c(=O)c2c1-c1ccccc1 | inconclusive [cytotoxic, partial curve] |  |
| CCCCOc1ccc(C(O)(CCC)CCN2CCOCC2)cc1 (centres undefined) | inactive |  |

| SMILES | Potency | activity, negative = toxicity |
| --- | --- | --- |
| O=C(Nc1ccc(Cl)cc1)C(Cl)C(=O)c1ccccc1 (centres undefined) | inconclusive [cytotoxic, single point] |  |
| Cc1ccc(C)c(NC(=O)c2cc3ccccn3n2)c1 | inactive |  |
| Cc1ccc(NC(=O)CNC(=O)CC23CC4CC(CC(C4)C2)C3)c(O)c1 | inactive |  |
| CC1=C(C(=O)N(C(C)C)C(C)C)CC(CC(=O)NC(c2ccccc2)c2ccccc2)C(=O)N1CCCN1CCCC1=O (centres undefined) | inactive |  |
| CC1C/C(=C\c2cccnc2)C(=O)/C(=C/c2cccnc2)C1 (centres undefined) | active: 2.91 µM |  |
| COc1cccc(Cl)c1NC(=O)N1CCc2c([nH]c3ccccc23)C1C(F)(F)F (centres undefined) | inconclusive [cytotoxic, partial curve] |  |
| CCN(CC(=O)Nc1cc(S(=O)(=O)N2CCCCC2)ccc1C)Cc1ccccc1 | inconclusive [cytotoxic, partial curve] |  |
| c1ccc(Nc2nc(NCC3CCCO3)c3ccccc3n2)cc1 (centres undefined) | active: 18.4 µM |  |
| Cc1ccc(S(=O)(=O)n2nc(OC(=O)c3c(-c4ccccc4Cl)noc3C)cc2N)cc1 | inconclusive [cytotoxic, single point] |  |
| Oc1ccc2ccccc2c1C=Nc1cc(C(F)(F)F)ccc1N1CCCC1 | inconclusive [cytotoxic, partial curve] |  |
| O=C(/C=C/c1cccnc1)c1cccc(O)c1 | inconclusive [cytotoxic, single point] |  |
| CC(OC(=O)c1ccc2c(=O)n3c(nc2c1)CCCCC3)C(=O)Nc1ncc(Cl)cc1Cl (centres undefined) | inactive |  |
| FC(F)(F)c1nnc2c(Sc3ccccn3)nc3ccccc3n12 | inconclusive [cytotoxic, partial curve] |  |
| CCc1noc(C)c1C(=O)OC(C)C(=O)Nc1ccc2c(c1)OCO2 (centres undefined) | inactive |  |
| CCOc1ccc(Nc2nc(Cc3nnc(SCC(=O)c4ccc(C)c(C)c4)o3)cs2)cc1 | inconclusive [cytotoxic, single point] |  |
| Cc1noc(C)c1CSc1nc2ccccc2c(=O)n1-c1ccccc1 | active: 9.2 µM |  |
| Cc1cc(C)nc(N/N=C/C(Cl)=C/c2ccccc2)n1 | inconclusive [cytotoxic, single point] |  |
| O=C(Nc1ccc(F)cc1)C(=O)c1c(O)[nH]c2ccc([N+](=O)[O-])cc12 | inactive |  |
| CCC(O)CC(C(=O)NNc1ccccc1)C(=O)NNc1ccccc1 (centres undefined) | active: 5.8 µM |  |
| CCOC(=O)c1c(-c2cccs2)csc1NC(=O)CN(CC)CC | inactive |  |
| COc1ccccc1NS(=O)(=O)c1cccc(C(=O)N/N=C/c2c(CO)cnc(C)c2O)c1 | inconclusive [cytotoxic, partial curve] |  |
| Cc1noc(C)c1NC(=O)N(C)C[C@H]1Oc2c(NC(=O)Nc3ccc(C(F)(F)F)cc3)cccc2C(=O)N([C@H](C)CO)C[C@@H]1C | inactive |  |
| O=C(/C=C/c1cn(CC(O)CN2CCCCC2)c2ccccc12)c1cccs1 (centres undefined) | inconclusive [cytotoxic, single point] |  |

| SMILES | Potency | activity, negative = toxicity |
| --- | --- | --- |
| COc1cccc(C2=CC(c3cccc(OC)c3OC)n3nnnc3N2)c1 (centres undefined) | active: 16.4 µM |  |
| Fc1ccc(-c2csc3ncnc(N4CCN(Cc5ccccc5)CC4)c23)cc1 | inactive |  |
| CCCN(CCC)Cc1cc(=O)oc2ccc3ccccc3c12 | inconclusive [cytotoxic, single point] |  |
| COc1ccccc1-c1nnc(NC(=O)c2ccc(S(=O)(=O)N(C)CC3CCCO3)cc2)o1 (centres undefined) | inconclusive [cytotoxic, partial curve] |  |
| Cc1c(N=C2N=C(NC(=O)c3ccc(F)cc3)c3ccccc32)c(=O)n(-c2ccccc2)n1C | inactive |  |
| CNC(=O)c1ccsc1NC(=O)C1CCN(S(=O)(=O)c2ccc(Cl)s2)CC1 | inconclusive [cytotoxic, single point] |  |
| Cc1ccc(OCCn2c(=S)[nH]c3ccccc32)c(C(C)C)c1 | inconclusive [cytotoxic, single point] |  |
| COc1cc(CNCc2ccc(OC)c(OC)c2OC)cc(OC)c1 | inconclusive [cytotoxic, single point] |  |
| O=C(c1cncc(Br)c1)N1CCN(S(=O)(=O)c2ccc(Cl)cc2)CC1 | inactive |  |
| Nc1nc2ccccc2n1/N=C/c1ccc2c(c1)OCO2 | inactive |  |
| Cc1ccc(-c2ccc(CCC(=O)O)o2)cc1 | inconclusive [cytotoxic, single point] |  |
| Cc1cc(O)c2c(c1O)C(=O)[C@]13C(=C2O)C(=O)[C@@H]2[C@@H](O)[C@H]1[C@@H]1[C@H](O)[C@H]3C(=O)C3=C(O)c4c(O)cc(C)c(O)c4C(=O)[C@]312 | active: 0.92 µM |  |
| COc1ccc(C(=O)N/N=C/c2ccc3cccc(OCc4ccccc4)c3n2)cc1 | inconclusive [cytotoxic, single point] |  |
| CCOC(=O)CN1C(=O)/C(=C/c2c(F)cccc2Cl)Oc2ccccc21 | inconclusive [cytotoxic, full curve] |  |
| CC(C)(C)n1nnnc1C(c1ccccc1OC(F)(F)F)N1CCN(C/C=C/c2ccccc2)CC1 (centres undefined) | inconclusive [cytotoxic, partial curve] |  |
| C[C@H]1CN([C@@H](C)CO)C(=O)c2cccc(NC(=O)C3CC3)c2O[C@H]1CN(C)S(=O)(=O)c1ccccc1 | inactive |  |
| Cc1ccc(C(=O)CSC2=C(C#N)C(c3ccco3)C3=C(CCCC3=O)N2)cc1 (centres undefined) | active: 5.62 µM |  |
| O=C(NC(c1ccc(Cl)cc1)c1c(O)ccc2ccccc12)c1ccccc1 (centres undefined) | inconclusive [cytotoxic, single point] |  |
| Cc1c(C(=O)OC2CCCC2)[nH]c2c1C(=O)CC(c1ccco1)C2 (centres undefined) | active: 1.3 µM |  |
| C#CCOCCOCCOCCNc1nc(N2CCN(C(=O)Cn3cc(CCO)nn3)CC2)nc(N2CCN(C(=O)[C@H](Cc3ccc(O)cc3)n3cc(CCO)nn3)CC2)n1 | inactive |  |
| c1ccc(-c2cc3nc(NCc4cccs4)nc(NCc4ccc5occc5c4)c3s2)cc1 | active: 18.4 µM |  |
| CCOc1ccc(NC(=S)N2CCC(NC(=O)C3CCCCC3)CC2)cc1 | inactive |  |
| CSc1ccc2c(c1)C(N1CCN(C)CC1)Cc1ccccc1S2 (centres undefined) | active: 20.6 µM |  |
